Reference: PubChem BioAssay AID1457 (National Center for Advancing Translational Sciences (NCATS), 2008)
Screen size: about 210,000 compounds; about 730 (0.35%) were called active. Inconclusive results, whose numbers are uncertain, are shown with a selection of clear calls. The call rests on the fitted dose curve; in most records, active means well fitted inhibition curve with a large enough effect; inconclusive means small, poorly fitted or top-dose-only effect; inactive means no such curve, though single readings can be large or run the other way. A potency beside an inconclusive call is a rough fit, not a confirmed value.

Assay: qHTS Assay for Identifying the Cell-Membrane Permeable IMPase Inhibitors: Potentiation with Lithium; further: nearly all actives have a fitted effect of over 50% in size;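 on activity, negative = IMPase inhibition: plate controls were basal vehicle for no effect and high inhibitor control for full effect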
Conditions: CHO-M1 cells, IP1 TR-FRET (IP-One), carbachol + lithium; series mostly up to 59.4 µM; activity, negative = IMPase inhibition: at the top concentration
Outline: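 Test compounds were applied to CHO-M1 cells previously cultured for 16–30 h at 2000 per well. A small lithium amount accompanied them; after 30 min at 37C, IP1 was quantified by TR-FRET.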
Potency means the concentration at half of the fitted maximal effect.

Row | SMILES | activity, negative = IMPase inhibition | Potency
1 | COC/C=C/C1=CC2=CC(=O)C(C)(OC(=O)C3CCCC3)C(=O)C2=CO1 (stereo not drawn) | inactive: 23.2% | –
2 | CCc1ccc(NC(=S)N(Cc2ccc(Cl)cc2)Cc2ccc(C(=O)O)cc2)cc1 | inactive: 10.8% | –
3 | Cn1c(=S)[nH]c2ccccc21 | – | inconclusive: 12.6 µM [inhibitor, single point]
4 | COC(=O)c1ccc(COc2ccc3c(C)c(C)c(=O)oc3c2)o1 | – | inconclusive: 20 µM [inhibitor, single point]
5 | CCn1ncc(Br)c1C(=O)Nc1ccc(F)cc1F | – | inconclusive: 28.2 µM [inhibitor, single point]
6 | O=C(C1=C(O)C(=O)N(c2ncccn2)C1c1cccc(Cl)c1)c1ccco1 (stereo not drawn) | – | inconclusive: 28.2 µM [inhibitor, single point]
7 | COc1cccc(-c2ccc(SCC(=O)N3CCc4ccccc43)nn2)c1 | inactive: 4.34% | –
8 | CCCCOC(=O)CSc1nc(N)c(C#N)c(-c2ccc(OCC)cc2)c1C#N | – | inconclusive: 20 µM [inhibitor, single point]
9 | Cc1ccc(Oc2ncc(-c3ccc(Cl)cc3)cn2)cc1 | – | inconclusive: 11.2 µM [inhibitor, single point]
10 | Cc1cc(/C=C(\C#N)C(=O)Nc2ccc(F)cc2)c(C)n1-c1ccc(N2CCOCC2)c([N+](=O)[O-])c1 | inactive: 21.7% [at 38.3 µM] | –
11 | Cc1cc(C(N)=O)c2ccccc2n1 | inactive: -4.65% [at 38.3 µM] | –
12 | COC1(OC)N=C(N)C2(C#N)C(c3ccccc3)NC(C)=CC12C#N (stereo not drawn) | – | inconclusive: 31.6 µM [inhibitor, single point]
13 | Cc1cc(C(=O)Nc2sc3c(c2C#N)CCCCC3)cs1 | – | inconclusive: 28.2 µM [inhibitor, single point]
14 | COc1ncc2nc(-c3ccccc3)c(=O)n(-c3ccccc3)c2n1 | inactive: 6.99% | –
15 | COCCCN1C(=O)C(=O)/C(=C(/O)c2ccc3c(c2)CC(C)O3)C1c1cccnc1 (stereo not drawn) | – | active: 8.91 µM
16 | COc1cccc(-c2nc(NC3CC3)c3ccccc3n2)c1 | inactive: 16.1% | –
17 | COc1ccc2nc(SCC(=O)Nc3ccc(S(=O)(=O)Nc4onc(C)c4C)cc3)[nH]c2c1 | inactive: 2.77% | –
18 | O=C(/C=C/c1ccco1)NCCCN1CCN(CCCNC(=O)/C=C/c2ccco2)CC1 | inactive: 15.6% | –
19 | O=C(NC(=O)c1cccc(F)c1)Nc1nc(-c2ccc(F)cc2)cc(C(F)(F)F)n1 | – | inconclusive: 11.2 µM [inhibitor, single point]
20 | CCC1(C)Cc2nc3[nH]c(=S)n(-c4ccc(C)cc4)c(=O)c3cc2CO1 (stereo not drawn) | – | active: 8.91 µM
21 | CCc1ccc(NC(=O)CSc2nnc(-c3cnccn3)n2Cc2ccco2)cc1 | – | inconclusive: 20 µM [inhibitor, single point]
22 | Cn1ncc([N+](=O)[O-])c1C(=O)Nc1nc2ccccc2n1CCN1CCCCC1 | – | active: 7.94 µM
23 | NC(=O)COC(=O)CSc1cccc2cccc(Cl)c12 | – | inconclusive: 11.2 µM [inhibitor, partial curve]
24 | COC(=O)c1ccccc1NC(=O)Cn1c(SC)c(F)cnc1=O | – | inconclusive: 20 µM [inhibitor, single point]
25 | CCSC1=NCCN1C(=O)C(C)(C)Oc1ccc(Cl)cc1 | – | inconclusive: 5.62 µM [inhibitor, single point]

Row | SMILES | activity, negative = IMPase inhibition | Potency
26 | O=C(CCn1c(=O)[nH]c2ccsc2c1=O)NCc1ccc(F)cc1 | – | inconclusive: 2 µM [inhibitor, partial curve]
27 | COc1ccc(C(=O)OCC(=O)NCC2CCCO2)cc1 (stereo not drawn) | inactive: 5.1% | –
28 | CCn1c(SCC(=O)Nc2ccc(NC(=O)c3ccco3)c(OC)c2)nc2ccccc2c1=O | – | active: 12.6 µM
29 | CCOC(=O)CSc1cc(=O)n(CC)c2ccccc12 | – | inconclusive: 10 µM [inhibitor, partial curve]
30 | CC1CCCC(NC(=O)COC(=O)c2ccccc2Sc2ccccc2C#N)C1C (stereo not drawn) | – | inconclusive: 14.1 µM [inhibitor, single point]
31 | CC(=O)c1sc(NC(=O)C2COc3ccccc3O2)nc1C (stereo not drawn) | – | inconclusive: 12.6 µM [inhibitor, single point]
32 | COc1cc2ncnc(NCc3ccccc3Cl)c2cc1OC | – | inconclusive: 28.2 µM [inhibitor, single point]
33 | COc1ccc2cc(/C=N/NC(=O)CN(c3ccccc3C)S(=O)(=O)c3ccccc3)c(Cl)nc2c1 | – | inconclusive: 28.2 µM [inhibitor, single point]
34 | S=C(NCc1ccccc1)N1CCn2cccc2C1c1cccnc1 (stereo not drawn) | – | inconclusive: 5.62 µM [inhibitor, single point]
35 | Brc1ccc2ncc(Br)cc2c1 | – | inconclusive: 11.2 µM [inhibitor, partial curve]
36 | COc1ccc(S(=O)(=O)NCCSCc2cccs2)cc1 | inactive: 19.2% [at 38.3 µM] | –
37 | Cc1cc(-c2ccc(N=Nc3cc(S(=O)(=O)O)c4ccccc4c3N)c(C)c2)ccc1N=Nc1cc(S(=O)(=O)O)c2ccccc2c1N | inactive: -1.51% | –
38 | COc1ccc(-c2cc(C3CCN(c4ncccc4[N+](=O)[O-])CC3)[nH]n2)cc1 | – | inconclusive: 0.355 µM [inhibitor, full curve, poor fit]
39 | CCOc1ccc(-c2nnc(SCC(=O)Nc3cc(C)on3)o2)cc1 | – | inconclusive: 28.2 µM [inhibitor, single point]
40 | CN1CCN(c2ncc3nc(-c4ccc(Cl)cc4)c(=O)n(C4CC4)c3n2)CC1 | inactive: 8.91% | –
41 | O=C(Nc1nc2ccc(S(=O)(=O)N3CCOCC3)cc2s1)c1cccs1 | – | inconclusive: 28.2 µM [inhibitor, single point]
42 | CSc1sc(C(=O)O)c2c1C(=O)CCC2 | – | inconclusive: 10 µM [inhibitor, single point]
43 | Cc1cc(NC(=O)CSc2ncnc3sc(C)c(C)c23)no1 | – | inconclusive: 28.2 µM [inhibitor, single point]
44 | CSc1nc(N)nc(SCC(=O)c2ccc(C)cc2)c1C#N | – | inconclusive: 28.2 µM [inhibitor, single point]
45 | CS(=O)(=O)N(CC(=O)Nc1ccc(F)c(F)c1)c1cccc([N+](=O)[O-])c1 | inactive: -7.2% | –
46 | CCOC(=O)c1c(N)n(C2CC(C)(C)NC(C)(C)C2)c2nc3ccccc3nc12 | – | inconclusive: 10 µM [inhibitor, single point]
47 | Cc1ccc2[nH]c(=O)c(CN(C(=O)c3cccs3)c3ccccc3)cc2c1 | – | inconclusive: 10 µM [inhibitor, partial curve]
48 | Cc1nc2cc(NC(=O)CSc3nc4c(C)cccc4cc3C#N)ccc2s1 | – | active: 11.2 µM
49 | CCCCn1c(SCC(=O)c2ccc3c(c2)NC(=O)CO3)nc2cc(S(N)(=O)=O)ccc21 | – | inconclusive: 28.2 µM [inhibitor, single point]
50 | CC(C)(C)C(=O)NNC(=O)COc1ccc2ccccc2c1Br | – | inconclusive: 7.94 µM [inhibitor, partial curve]

Row | SMILES | activity, negative = IMPase inhibition | Potency
51 | COc1ccc(CCNC(=O)CSc2cccc3cccnc23)cc1OC | inactive: 0.861% | –
52 | CCC(=O)N=c1sc2c(C)cc(C)cc2n1CC(=O)OC | – | active: 12.6 µM
53 | CCNc1nc(C)c2cc(Br)c(=O)n(CC)c2n1 | – | inconclusive: 10 µM [inhibitor, partial curve]
54 | CC1Cc2cc(/C(O)=C3/C(=O)C(=O)N(CCCn4ccnc4)C3c3ccco3)ccc2O1 (stereo not drawn) | – | inconclusive: 6.31 µM [inhibitor, partial curve]
55 | [O-]/[N+](=C\c1ccncc1)c1ccc(Br)cc1 | inactive: -2.07% | –
56 | COc1ccc(-c2cc(C(=O)Nc3ccc(C)cc3)no2)cc1 | – | inconclusive: 28.2 µM [inhibitor, single point]
57 | CC(NC(=O)CCCN1C(=O)c2ccccc2C1=O)c1ccc2c(c1)CCCC2 (stereo not drawn) | – | inconclusive: 4.47 µM [inhibitor, full curve, poor fit]
58 | COc1ccc(CC(=O)OCC(=O)NCc2ccccc2Cl)cc1OC | – | inconclusive: 3.16 µM [inhibitor, partial curve]
59 | Cc1c(C#N)c(N)nc2c3c(sc12)NC(=O)CC3c1ccccc1 (stereo not drawn) | – | inconclusive: 12.6 µM [inhibitor, single point]
60 | Cc1ccc2nc(NC(=S)NC(=O)c3cccs3)sc2c1 | – | inconclusive: 3.55 µM [inhibitor, partial curve]
61 | O=[N+]([O-])c1ccc(OCc2cnc(Cl)s2)cc1 | inactive: 9.98% | –
62 | COc1cccc(NC(=S)N(Cc2ccc(Cl)cc2)Cc2ccc(C(=O)O)cc2)c1 | inactive: -4.38% | –
63 | N#Cc1ccc(NC(=O)CCc2ccc(S(=O)(=O)N3CCOCC3)cc2)cc1 | inactive: 0.191% [at 38.3 µM] | –
64 | CC(=O)c1ccc(NC(=O)c2cn(-c3ccccc3)nc2-c2ccncc2)cc1 | – | inconclusive: 28.2 µM [inhibitor, single point]
65 | Clc1ccc(OCc2nn3c(C4CCCCC4)nnc3s2)c(Cl)c1 | inactive: -5.77% [at 38.3 µM] | –
66 | O=C(Cn1ncc2ccccc21)N1CCc2ccccc21 | inactive: 25.9% [at 38.3 µM] | –
67 | CCCn1c(=O)c(Cc2ccccc2)c(O)c2ccccc21 | – | inconclusive: 1.12 µM [inhibitor, full curve, poor fit]
68 | C=CCNc1nc(C)c(C(C)=O)cc1C#N | – | inconclusive: 28.2 µM [inhibitor, single point]
69 | COc1ccc(C(=O)c2oc3ccc(Br)cc3c2NC(C)=O)cc1 | – | inconclusive: 12.6 µM [inhibitor, single point]
70 | CC(=O)CSc1nc(-c2cccs2)c(C#N)c(=O)[nH]1 | – | active: 7.94 µM
71 | CCCOc1ccc(C2C(C(=O)c3ccc(C)o3)=C(O)C(=O)N2Cc2cccnc2)cc1 (stereo not drawn) | – | active: 10 µM
72 | COC(=O)Cn1c(=NC(=O)c2ccc(Cl)s2)sc2cc(F)ccc21 | – | inconclusive: 10 µM [inhibitor, partial curve]
73 | CCOc1ccccc1-c1n[nH]c(=S)o1 | – | inconclusive: 12.6 µM [inhibitor, single point]
